From patent publication US10111437B2, “Substituted guanidines as fungicides” (Nippon Soda Co., Ltd., priority 2015, dated 2018)

Test system: wheat powdery mildew fungus (Blumeria graminis f. sp. tritici)
Test: Wheat powdery mildew control test (foliar spray on wheat seedlings)
Conditions: in Triticum aestivum, 168 h, read-out: control value

Structure (SMILES) | pest or weed control at 125 ppm [%]
Cc1cn(CCCOc2ccc(C(=N)N)cc2)c(=N)n1CCCOc1ccc(C(=N)N)cc1 [compound 114] | ≥ 75
N=C(N)NCCCCCCCCNC(=N)NCCCOc1ccc(C(=N)N)cn1 [compound 120] | ≥ 75
CNC(=N)c1ccc(OCCCn2ccn(CCCOc3ccc(C(=N)N)cc3)c2=N)cc1 [compound 122] | ≥ 75
N=C(N)c1ccc(OCCCn2ccn(CCCc3cc4cc(C(=N)N)ccc4o3)c2=N)cc1 [compound 126] | ≥ 75
CN(CCCOc1ccc(C(=N)N)cc1)C(=N)NCCCCCCCCNC(=N)N [compound 128] | ≥ 75
CN(C)/C(=N\CCCOc1ccc(C(=N)N)cc1)NCCCOc1ccc(C(=N)N)cc1 [compound 130] | ≥ 75
N=C(N)NCCCCCNC(=N)NCCCOc1ccc(C(=N)N)cc1 [compound 132] | ≥ 75
N=C(N)NCCCCCCNC(=N)NCCCOc1ccc(C(=N)N)cc1 [compound 134] | ≥ 75
N=C(N)NCCCCCCNC(=N)NCCCCOc1ccc(C(=N)N)cc1 [compound 136] | ≥ 75
C/N=C(/NCCCOc1ccc(C(=N)N)cc1)N(C)CCCOc1ccc(C(=N)N)cc1 [compound 138] | ≥ 75
CN(CCCCCCCCNC(=N)N)C(=N)NCCCOc1ccc(C(=N)N)cc1 [compound 140] | ≥ 75
N=C(NCCCOCc1ccc(C(=N)N)cc1)NCCCOc1ccc(C(=N)N)cc1 [compound 142] | ≥ 75
N=C(N)NCCCCCCCCNC(=N)NCCCOCc1ccc(C(=N)N)cc1 [compound 145] | ≥ 75
CNCCNC(=N)NCCCCCCCCNC(=N)NCCCCOc1ccc(C(=N)N)cc1 [compound 147] | ≥ 75
N=C(N)c1ccc(OCCCn2cc(-c3ccccc3)n(CCCOc3ccc(C(=N)N)cc3)c2=N)cc1 [compound 149] | ≥ 75
N=C(NCC/C=C/c1ccc(C(=N)N)cc1)NCC/C=C/c1ccc(C(=N)N)cc1 [compound 151] | ≥ 75
N=C(N)NCCCCCCCCNC(=N)NCCC#Cc1ccc(C(=N)N)cc1 [compound 153] | ≥ 75
N=C(NCC#Cc1ccc(C(=N)N)cc1)NCC#Cc1ccc(C(=N)N)cc1 [compound 155] | ≥ 75
N=C(N)NCCCCCCCCNC(=N)NCCC=Cc1ccc(C(=N)N)cc1 [compound 157] | ≥ 75
N=C(N)c1ccc(COCCCn2ccn(CCCOc3ccc(C(=N)N)cc3)c2=N)cc1 [compound 159] | ≥ 75
N=C(N)c1ccc(COCCCn2ccn(CCCOCc3ccc(C(=N)N)cc3)c2=N)cc1 [compound 161] | ≥ 75
N=C(N)NCCCCCCCNC(=N)NCCC=Cc1ccc(C(=N)N)cc1 [compound 163] | ≥ 75
N=C(N)NCCCCCCCCNC(=N)NCC#Cc1ccc(C(=N)N)cc1 [compound 165] | ≥ 75
N=C(N)NCCCCCCCCNC(=N)NC/C=C/c1ccc(C(=N)N)cc1 [compound 167] | ≥ 75
N=C(N)NCCCCCCCCNC(=N)NCCCc1ccc(C(=N)N)cc1 [compound 169] | ≥ 75
N=C(N)NCCCCCCCCNC(=N)NCCCCCOc1ccc(C(=N)N)cc1 [compound 171] | ≥ 75
N=C(N)c1ccc(OCCCn2ccn(CCCSc3ccc(C(=N)N)cc3)c2=N)cc1 [compound 173] | ≥ 75

Structure (SMILES) | pest or weed control at 125 ppm [%]
N=C(NCCCOCc1ccc(C(=N)N)cc1)NCCCOCc1ccc(C(=N)N)cc1 [compound 175] | ≥ 75
N=C(N)NCCCCCCCNC(=N)NCCCSc1ccc(C(=N)N)cc1 [compound 177] | ≥ 75
N=C(N)NCCCCCCCNC(=N)NCCCOCc1ccc(C(=N)N)cc1 [compound 179] | ≥ 75
N=C(N)c1ccc(SCCCn2ccn(CCCSc3ccc(C(=N)N)cc3)c2=N)cc1 [compound 181] | ≥ 75
N=C(N)NCCCCCCCCn1ccn(CCCOc2ccc(C3=NCCCN3)cc2)c1=N [compound 184] | ≥ 75
N=C(N)NCCCCCCCNC(=N)NCCCCCOc1ccc(C(=N)N)cc1 [compound 186] | ≥ 75
N=C(N)NCCCCCCCCNC(=N)NCCCCOc1ccc(C(=N)N)cc1 [compound 188] | ≥ 75
N=C(N)NCCCCCCCNC(=N)NCCCOc1ccc(C2=NCCCN2)cc1 [compound 190] | ≥ 75
N=C(N)NCCCCCCCCNC(=N)NCCCOc1ccc(C2=NCCCN2)cc1 [compound 192] | ≥ 75
N=C(NCCCCOc1ccc(C(=N)N)cc1)NCCCCOc1ccc(C(=N)N)cn1 [compound 194] | ≥ 75
N=C(NCCCCOc1ccc(C(=N)N)cc1)NCCCc1cc2cc(C(=N)N)ccc2o1 [compound 196] | ≥ 75
N=C(N)NCCCCCCCCNC(=N)NCCCSc1ccc(C(=N)N)cc1 [compound 198] | ≥ 75
N=C(N)NCCCCCCCCNC(=N)NCCOCc1ccc(C(=N)N)cc1 [compound 200] | ≥ 75
N=C(N)NCCCCCCCNC(=N)NCCCCOc1ccc(C2=NCCCN2)cc1 [compound 202] | ≥ 75
N=C(N)NCCCCCCCCNC(=N)NCCCCOc1ccc(C2=NCCCN2)cc1 [compound 204] | ≥ 75
N=C(N)NCCCCCCCn1ccn(CCCOc2ccc(C3=NCCCN3)cc2)c1=N [compound 206] | ≥ 75
N=C(N)NCCCCCCCn1ccn(CCCCOc2ccc(C3=NCCCN3)cc2)c1=N [compound 208] | ≥ 75
N=C(N)NCCCCCCCCn1ccn(CCCCOc2ccc(C3=NCCCN3)cc2)c1=N [compound 210] | ≥ 75
N=C(N)NCCCCCCCCCn1ccn(CCCCOc2ccc(C3=NCCCN3)cc2)c1=N [compound 212] | ≥ 75
N=C(N)c1ccc(OCCCCn2ccn(CCCCOc3ccc(C4=NCCCN4)cc3)c2=N)cc1 [compound 214] | ≥ 75
N=C(N)NCCCCCCCCn1ccn(CCCCOc2ccc(C(=N)N)cc2)c1=N [compound 216] | ≥ 75
N=C(N)NCCCCCCCCCNC(=N)NCCCOc1ccc(C2=NCCCN2)cc1 [compound 218] | ≥ 75
N=C(N)NCCCCCCCCNC(=N)NCCOCc1ccc(C2=NCCCN2)cc1 [compound 220] | ≥ 75
N=C(N)NCCCCCCCCNC(=N)NCCCOCc1ccc(C2=NCCCN2)cc1 [compound 222] | ≥ 75
N=C(N)NCCCCCCCNC(=N)NCCCOCc1ccc(C2=NCCCN2)cc1 [compound 224] | ≥ 75
N=C(N)NCCCCCCCNC(=N)NCCOCc1ccc(C(=N)N)cc1 [compound 228] | ≥ 75
N=C(N)NCCCCCCCCNC(=N)NCCCOc1ccc(C(=N)N)cc1 [compound 230] | ≥ 75

Structure (SMILES) | pest or weed control at 125 ppm [%]
N=C(N)NCCCCCCCCCNC(=N)NCCOc1ccc(C(=N)N)cc1 [compound 234] | ≥ 75
N=C(N)NCCCCCCCNC(=N)NCCOc1ccc(C(=N)N)cc1 [compound 236] | ≥ 75
N=C(N)NCCCCCCCNC(=N)NCCOCc1ccc(C2=NCCCN2)cc1 [compound 238] | ≥ 75
N=C(N)NCCCCCCCCNC(=N)NCCOc1ccc(C2=NCCCN2)cc1 [compound 240] | ≥ 75
N=C(N)NCCCCCCCCCNC(=N)NCCOc1ccc(C2=NCCCN2)cc1 [compound 242] | ≥ 75
N=C(N)NCCCCCCCCNC(=N)NCCCCOc1ccc(C2=NCCN2)cc1 [compound 246] | ≥ 75
N=C(N)NCCCCCCCCNC(=N)NCCCCCOc1ccc(C2=NCCCN2)cc1 [compound 248] | ≥ 75
N=C(N)NCCCCCCCCNC(=N)NCCCOCc1ccc(C2=NCCCN2)cn1 [compound 250] | ≥ 75
N=C(N)NCCCCCCCCNC(=N)NCCCc1ccc(C2=NCCCN2)cc1 [compound 252] | ≥ 75
N=C(N)NCCCCCCCCNC(=N)NCCCCOc1ccc(C2=NCCCCN2)cc1 [compound 254] | ≥ 75
CC1(C)CNC(c2ccc(OCCCCNC(=N)NCCCCCCCCNC(=N)N)cc2)=N1 [compound 256] | ≥ 75
CC1(C)CN=C(c2ccc(OCCCCNC(=N)NCCCCCCCCNC(=N)N)cc2)NC1 [compound 258] | ≥ 75
N=C(N)NCCCCCCCCNC(=N)NCCCc1cc2cc(C3=NCCCN3)ccc2o1 [compound 260] | ≥ 75
N=C(N)NCCCCCCCCNC(=N)NCc1ccc(C2=NCCCN2)cc1 [compound 262] | ≥ 75
N=C(N)NCCCCCCCCNC(=N)N1CCC(Oc2ccc(C3=NCCCN3)cc2)CC1 [compound 264] | ≥ 75
N=C(N)NCCCCCCCCNC(=N)NCCc1ccc(C2=NCCCN2)cc1 [compound 266] | ≥ 75
N=C(N)NCCCCCCCCn1ccn(CCOc2ccc(C3=NCCCN3)cc2)c1=N [compound 270] | ≥ 75
N=C(N)NCCCCCCCCNC(=N)NCCCc1ccc(C2=NCCCN2)cn1 [compound 273] | ≥ 75
N=C(N)NCCCCCCCCNC(=N)NCCCCOc1ccc(C2=NCCCN2)cn1 [compound 275] | ≥ 75
N=C(N)NCCCCCCCNC(=N)NCCCCOc1ccc(C2=NCC(N)CN2)cc1 (stereo not shown) [compound 277] | ≥ 75
N=C(N)NCCCCCCCCNC(=N)NCCCCOc1ccc(C2=NCC(N)CN2)cc1 (stereo not shown) [compound 279] | ≥ 75
N=C(N)NCCCCCCCCn1ccn(CCOc2ccc(C(=N)N)cc2)c1=N [compound 281] | ≥ 75
N=c1[nH]ccn1CCCCCCCCn1ccn(CCCOc2ccc(C3=NCCCN3)cc2)c1=N [compound 283] | ≥ 75
N=C(N)NCCCCCCCCNC(=N)NCCOc1ccc(C2=NCC(N)CN2)cc1 (stereo not shown) [compound 285] | ≥ 75
N=C(N)NCCCCCCCCNC(=N)NCCOc1ccc(C(=N)N)cc1 [compound 286] | ≥ 75
